Experimental findings from US20230391887A1 (CITY OF HOPE, published 2023) are described below.

For test [1], the target named is T1, EGFR on MDA-MB-468 cells (UniProt P00533).
T1 construct: whole, on cells; also called EGFR positive MD-MBA-468 cells; untreated cells
As to the kind of experiment: FACS on MDA-MB-468 cells.

For test [2], the target named is T1, EGFR on MDA-MB-468 cells. Put plainly: fluorescence microscopy on MDA-MB-468 cells.

B1: meditope-Fc (bivalent meditope-Fc construct, SEQ ID NO: 57) (Fc fusion)
chain: GCQFDLSTRRLRCGGSRSGGTSGGGSVPGSGSSGSTSGSGKSSEGSGQ[human IgG1 Fc and a few adjoining residues not written out]
notes: homodimer through the Fc; Alexa Fluor-labeled in the cell studies; also called MFC
As for B1, the binding result in test [1] was “no binding”.

B2: tetravalent meditope-Fc (M4FC, SEQ ID NO: 58) (Fc fusion)
chain: GCQFDLSTRRLRCGGSRSGGTSGTGSTSGSGSSGSTSGSGKSSEGSGQAS[human IgG1 Fc and a few adjoining residues not written out]GGSRSGGTSSSSSGSGSGSSGSTSGSGSSGCQFDLSTRRLRCG
As to B2, the binding result in test [2] is “no binding”.
